At least one read-out could not be matched to a standard name with certainty. Marks after values point to notes of the source that are not given here.
What follows are molecules tested on CaSki cells (assay: Colony Formation Assay (CFA), 14 days). Details: colony formation assay, class by % inhibition at 0.7, 6 or 50 μM.
Assay type: cell-based, human
In the case of CC(C)C[C@@H]1NCCN([C@@H](CC(C)C)C(=O)N2CCC(Cc3ccccn3)CC2)C1=O [Compound 82, (S)-1-[(S)-3-Methyl-1-({4-[(2-pyridyl)methyl]-1-piperidyl}car-bonyl)butyl]-3-isobutyl-2-piperazinone], the “Activity (inhibition of colony formation)” value is reported as “++ (more than 50% inhibition of colony formation at a concentration of 50 μM)”.
With CCC(=O)NC1CCN(C(=O)[C@H](CC(C)C)N2CCN[C@@H](CC(C)C)C2=O)CC1 [Compound 95, (S)-1-{(S)-3-Methyl-1-[(4-propionylamino-1-piperidyl)car-bonyl]butyl}-3-isobutyl-2-piperazinone] the “Activity (inhibition of colony formation)” value was “+* (greater than 0% but less than or equal to 50% inhibition of colony formation at a concentration of 50 μM)”.
With CC(C)(C)C[C@@H]1NCCN([C@@H](CC(C)(C)C)C(=O)N2CCC(CC(N)=O)CC2)C1=O [Compound 118, (1-{(S)-2-[(S)-3-Neopentyl-2-oxo-1-piperazinyl]-4,4-dimethylvaleryl}-4-piperidyl)acetamide] the “Activity (inhibition of colony formation)” value was “+* (greater than 0% but less than or equal to 50% inhibition of colony formation at a concentration of 50 μM)”.
In the case of [2H]C1([2H])N(CC2COC3(CCN(C(=O)[C@H](CC(C)C)N4CCN[C@@H](CC(C)C)C4=O)[C@@H](C)C3)OC2)C([2H])([2H])C([2H])([2H])C1([2H])[2H] (stereo partly drawn) [Compound 274, (3S)-1-[(2S)-4-methyl-1-oxo-1-[(3s,6s,8S)-8-methyl-3-[(^2H8)pyrrolidin-1-ylmethyl]-1,5-dioxa-9-azaspiro[5.5]undec-an-9-yl]pentan-2-y]-3-(2-methylpropyl)piper-azin-2-one (^≠), isomer Z], the “Activity (inhibition of colony formation)” value is reported as “++++ (more than 90% inhibition of colony formation at a concentration of 6 μM)”.
CC(C)C[C@@H]1NCCN([C@@H](CC(C)C)C(=O)N2CCC3(CCC3N(C)C)CC2)C1=O (stereo partly drawn) [Compound 266, (S)-1-[(S)-1-({1-(Dimethylamino)-7-aza-7-spiro[3.5]nonyl}car-bonyl)-3-methylbutyl]-3-isobutyl-2-piperazinone] was tested, and the “Activity (inhibition of colony formation)” value was “*+ (greater than 0% but less than or equal to 50% inhibition of colony formation at a concentration of 0.7 μM)”.
With Cc1c[nH]c(CC2CCN(C(=O)[C@H](CC(C)C)N3CCN[C@@H](CC(C)C)C3=O)CC2)n1 [Compound 75, (S)-1-[(S)-3-Methyl-1-({4-[(4-methyl-1H-imidazol-2-yl)methyl]-1-piperidyl}car-bonyl)butyl]-3-isobutyl-2-piperazinone] the “Activity (inhibition of colony formation)” value was “+++ (more than 90% inhibition of colony formation at a concentration of 50 μM)”.
CC(C)C[C@@H]1NCCN([C@@H](CC(C)C)C(=O)N2CC[C@H](CC(N)=O)C[C@@H]2C)C1=O [Compound 70, [(2S,4S)-1-{(S)-2-[(S)-3-Isobutyl-2-oxo-1-piperazinyl]-4-methylvaleryl}-2-methyl-4-piperidyl]acetamide] was tested, and the “Activity (inhibition of colony formation)” value was “++ (more than 50% inhibition of colony formation at a concentration of 50 μM)”.
In the case of CC(C)C[C@@H]1NCCN([C@@H](CC(C)C)C(=O)N2CCC3(C[C@@H]2C)OCC(C2CCCCN2C)CO3)C1=O (stereo partly drawn) [Compound 298, (S)-1-[(S)-1-({(S)-8-Methyl-3-(1-methyl-2-piperidyl)-1,5-dioxa-9-aza-9-spiro[5.5]un-decyl}carbonyl)-3-methylbutyl]-3-isobutyl-2-piperazinone], the “Activity (inhibition of colony formation)” value is reported as “++++ (more than 90% inhibition of colony formation at a concentration of 6 μM)”.
With CC(C)C[C@H]1C(=O)N([C@@H](CC(C)C)C(=O)N2CCC(Cc3nccn3C)CC2)CCN1C [Compound 86, (S)-1-[(S)-3-Methyl-1-({4-[(1-methyl-1H-imidazol-2-yl)methyl]-1-piperidyl}car-bonyl)butyl]-3-isobutyl-4-methyl-2-piperazinone] the “Activity (inhibition of colony formation)” value was “+++ (more than 90% inhibition of colony formation at a concentration of 50 μM)”.
In the case of CC(C)C[C@@H]1NCCN([C@@H](CC(C)C)C(=O)N2CCC3(CCCC3=O)CC2)C1=O [Compound 16, (S)-1-[(S)-1-{(8-Azaspiro[4.5]decan-8-oyl)carbonyl}-3-methylbutyl]-3-isobutyl-2-piperazinone], the “Activity (inhibition of colony formation)” value is reported as “++ (more than 50% inhibition of colony formation at a concentration of 50 μM)”.
CC(C)C[C@@H]1NCCN([C@@H](CC(C)C)C(=O)N2CCC3(CC2)CC(N(C)C)CO3)C1=O (stereo partly drawn) [Compound 271, (S)-1-[(S)-1-({3-(Dimethylamino)-1-oxa-8-aza-8-spiro[4.5]decyl}car-bonyl)-3-methylbutyl]-3-isobutyl-2-piperazinone] was tested, and the “Activity (inhibition of colony formation)” value was “++++ (more than 90% inhibition of colony formation at a concentration of 6 μM)”.
With CC(C)C[C@H]1C(=O)N([C@@H](CC(C)C)C(=O)N2CCC(Cc3nccn3C)CC2)CCN1Cc1ccc(F)cc1 [Compound 100, (S)-1-[(S)-3-Methyl-1-({4-[(1-methyl-1H-imidazol-2-yl)methyl]-1-piperidyl}car-bonyl)butyl]-4-[(p-fluorophenyl)meth-yl]-3-isobutyl-2-piperazinone] the “Activity (inhibition of colony formation)” value was “++++ (more than 90% inhibition of colony formation at a concentration of 6 μM)”.
With CC(C)CCN(C)C(=O)C(C)C1CCN(C(=O)[C@H](CC(C)C)N2CCN[C@@H](CC(C)C)C2=O)CC1 (stereo partly drawn) [Compound 41, (S)-1-[(S)-1-[(4-{2-[N-Methyl(isopentyl)amino]-1-methyl-2-oxoethyl}-1-piperidyl)carbonyl]-3-methylbutyl]-3-isobutyl-2-piperazinone] the “Activity (inhibition of colony formation)” value was “++ (more than 50% inhibition of colony formation at a concentration of 50 μM)”.
For CC(C)C[C@@H]1NCCN([C@@H](CC(C)C)C(=O)N2CCC3(CCC(N(C)C)C3)CC2)C1=O (stereo partly drawn) [Compound 240, (S)-1-[(S)-1-({2-(Dimethylamino)-8-aza-8-spiro[4.5]decyl}car-bonyl)-3-methylbutyl]-3-isobutyl-2-piperazinone], the “Activity (inhibition of colony formation)” value was “++++ (more than 90% inhibition of colony formation at a concentration of 6 μM)”.
With CC(C)C[C@H]1C(=O)N([C@@H](CC(C)C)C(=O)N2CCC(CCN3CCCC3)CC2)CCN1Cc1ccc(F)cc1 [Compound 275, (S)-1-[(S)-3-Methyl-1-({4-[2-(1-pyrrolidinyl)ethyl]-1-piperidyl}car-bonyl)butyl]-4-[(p-fluorophenyl)meth-yl]-3-isobutyl-2-piperazinone] the “Activity (inhibition of colony formation)” value was “++++ (more than 90% inhibition of colony formation at a concentration of 6 μM)”.

Same assay, conditions: inhibition of colony formation, 14 days, classes at 6, 50 or 0.7 μM
CC(C)C[C@@H](C(=O)N1CCC(CCN)CC1)N1CCN[C@@H](C)C1=O [Compound 140, (S)-1-[(S)-1-{[4-(2-Aminoethyl)-1-piperidyl]carbonyl}-3-methylbutyl]-3-methyl-2-piperazinone] was tested, and the Activity was “+* (greater than 0% but less than or equal to 50% inhibition of colony formation at a concentration of 50 μM)”.
For CCN(C)CCC1CCN(C(=O)[C@H](CC(C)C)N2CCN[C@@H](CC(C)C)C2=O)CC1 [Compound 161, (S)-1-[(S)-1-({4-[2-(N-Methyl-N-ethylamino)ethyl]-1-piperidyl}carbonyl)-3-methylbutyl]-3-isobutyl-2-piperazinone], the Activity was “++++ (more than 90% inhibition of colony formation at a concentration of 6 μM)”.
For CC(C)C[C@@H]1NCCN([C@@H](CC(C)C)C(=O)N2CCC(COc3cccc4c3C(=O)CC4)CC2)C1=O [Compound 222, (S)-1-[(S)-3-Methyl-1-({4-[(3-oxo-4-indanyloxy)methyl]-1-piperidyl}car-bonyl)butyl]-3-isobutyl-2-piperazinone], the Activity was “++ (more than 50% inhibition of colony formation at a concentration of 50 μM)”.
In the case of CC(C)C[C@@H]1NCCN([C@@H](CC(C)C)C(=O)N2CCC(CC(=O)OCC(C)(C)O)CC2)C1=O [Compound 208, 2-Hydroxy-2-methylpropyl (1-{(S)-2-[(S)-3-isobutyl-2-oxo-1-piperazinyl]-4-methylvaleryl}-4-piperidyl)acetate], the Activity is reported as “+* (greater than 0% but less than or equal to 50% inhibition of colony formation at a concentration of 50 μM)”.
For CC(C)C[C@@H]1NCCN([C@@H](CC(C)C)C(=O)N2CCC(CC(=O)OC3CCCC3)CC2)C1=O [Compound 206, Cyclopentyl (1-{(S)-2-[(S)-3-isobutyl-2-oxo-1-piperazinyl]-4-methylvaleryl}-4-piperidyl)acetate], the Activity was “++ (more than 50% inhibition of colony formation at a concentration of 50 μM)”.
CC(C)C[C@@H]1NCCN([C@@H](CC(C)C)C(=O)N2CCC3(C[C@@H]2C)OCC(CN2CCC2)CO3)C1=O (stereo partly drawn) [Compound 318, (S)-1-[(S)-1-({(S)-3-[(1-Azetidinyl)methyl]-8-methyl-1,5-dioxa-9-aza-9-spiro[5.5]undecyl}car-bonyl)-3-methylbutyl]-3-isobutyl-2-piperazinone] was tested, and the Activity was “++++ (more than 90% inhibition of colony formation at a concentration of 6 μM)”.
CC(C)CCNC(=O)CC1CCN(C(=O)[C@H](CC(C)C)N2CCN[C@@H](CC(C)C)C2=O)CC1 [Compound 185, (S)-1-[(S)-1-({4-[2-(Isopentylamino)-2-oxoethyl]-1-piperidyl}carbonyl)-3-methylbutyl]-3-isobutyl-2-piperazinone] was tested, and the Activity was “++ (more than 50% inhibition of colony formation at a concentration of 50 μM)”.
With COCC(C)OC(=O)CC1CCN(C(=O)[C@H](CC(C)C)N2CCN[C@@H](CC(C)C)C2=O)CC1 (stereo partly drawn) [Compound 202, 2-Methoxy-1-methylethyl (1-{(S)-2-[(S)-3-isobutyl-2-oxo-1-piperazinyl]-4-methylvaleryl}-4-piperidyl)acetate] the Activity was “+* (greater than 0% but less than or equal to 50% inhibition of colony formation at a concentration of 50 μM)”.
For CC(C)C[C@@H]1NCCN([C@@H](CC(C)C)C(=O)N2CCC(COc3cccc(C(=O)O)c3)CC2)C1=O [Compound 227, m-[(1-{(S)-2-[(S)-3-Isobutyl-2-oxo-1-piperazinyl]-4-methylvaleryl}-4-piperidyl)meth-oxy]benzoic acid], the Activity was “+* (greater than 0% but less than or equal to 50% inhibition of colony formation at a concentration of 50 μM)”.
For COc1cccc(OCC2CCN(C(=O)[C@H](CC(C)C)N3CCN[C@@H](CC(C)C)C3=O)CC2)c1 [Compound 174, (S)-1-[(S)-1-({4-[(m-Methoxy-phenoxy)methyl]-1-piperidyl}carbonyl)-3-methylbutyl]-3-isobutyl-2-piperazinone], the Activity was “+++ (more than 90% inhibition of colony formation at a concentration of 50 μM)”.
